Data as given in the supplement of paper PMC8821664.
Where a name gives a salt, the structure may show the parent alone. The list shows a part of the results. Repeats are few or missing, and single values can be far off.

test system: Beas-2B AQP5-HiBiT reporter cells; experiment: AQP5-HiBiT luminescence relative to vehicle (ratio to vehicle); higher = higher AQP5-HiBiT protein abundance; conditions: 10 µM; 18 h
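Further: monoclonal Beas-2B line stably carrying CMV promoter-driven AQP5-HiBiT, 5,000 cells per well in 384-well plates, lytic HiBiT plus LgBiT NanoLuc luminescence, FDA-approved drug library screen.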

Q: With CC#CCn1c(N2CCC[C@@H](N)C2)nc2c1c(=O)n(Cc1nc(C)c3ccccc3n1)c(=O)n2C [Linagliptin] as the compound, how does the AQP5-HiBiT luminescence read?
A: 1.04

Q: How did the AQP5-HiBiT luminescence turn out when CC(C)[N+](C)(CCOC(=O)C1c2ccccc2Oc2ccccc21)C(C)C [Propantheline bromide] was run?
A: 0.829

Q: Which AQP5-HiBiT luminescence does the source give for COc1ccccc1OCCNCC(O)COc1cccc2[nH]c3ccccc3c12 (centres undefined) [Carvedilol phosphate] here?
A: 0.846

Q: Which AQP5-HiBiT luminescence does the source give for CC[C@H]1OC(=O)[C@H](C)[C@@H](O[C@H]2C[C@@](C)(OC)[C@@H](O)[C@H](C)O2)[C@H](C)[C@@H](O[C@@H]2O[C@H](C)C[C@H](N(C)C)[C@H]2O)[C@](C)(OC)C[C@@H](C)C(=O)[C@H](C)[C@@H](O)[C@]1(C)O [Clarithromycin] here?
A: 0.85

Q: For CC(C)C(=O)Nc1ccc([N+](=O)[O-])c(C(F)(F)F)c1 [Flutamide], which AQP5-HiBiT luminescence is on record?
A: 0.977

Q: For CCC(=O)NCC[C@@H]1CCc2ccc3c(c21)CCO3 [Ramelteon], which AQP5-HiBiT luminescence is on record?
A: 0.864

Q: How did the AQP5-HiBiT luminescence turn out when CCN(CC)C(=S)SSC(=S)N(CC)CC [Disulfiram] was run?
A: 2.33

Q: With Cc1ccc(Cl)c(Nc2ccccc2C(=O)O)c1Cl [Meclofenamate Sodium] as the compound, how does the AQP5-HiBiT luminescence read?
A: 0.992

Q: With CC(C)(C(=O)O)c1ccc(C(O)CCCN2CCC(C(O)(c3ccccc3)c3ccccc3)CC2)cc1 (centres undefined) [Fexofenadine hydrochloride] as the compound, how does the AQP5-HiBiT luminescence read?
A: 1.34
